In patent publication US4076815A, “Quinoxaline compound and composition, process for preparing compound, and method of combatting cholera therewith” (Istituto Chemioterapico Italiano, S.p.A., priority 1977, dated 1978):

How the values were obtained:
[1] = Teratogenetic study, male and female mice and rats (summary)
[2] = Chronic toxicity in the female mouse, gastric gavage 18 weeks; details: for Dead/Treated: 18 weeks; for Fresh Organ-to-Body Weight Ratio, Heart / Fresh Organ-to-Body Weight Ratio, Lungs: m ± SE, 4 animals; for SGPT: mean of 6 animals, 24 hours after last dose
[3] = Subacute toxicity in female rats, gastric gavage 21 days; details: 2 g/kg/day gavage, death caused by a mistake in esophagus incannulation
[4] = tested on: cholera; assay: Prophylactic oral administration to humans exposed to cholera; details: for effectiveness as prophylactic agent in preventing cholera: oral administration; for treated persons infected: oral, 0.3 to 5 g per day for 3-5 days, epidemic conditions
[5] = tested on: five strains of vibrio cholerae; assay: Summary of effect on five strains of vibrio cholerae
[6] = Acute toxicity in four species (summary); details: several modes of administration

Structure (SMILES)	number of young delivered live at birth [1]	Dead/Treated ([2]; 250 mg/kg/day)	Fresh Organ-to-Body Weight Ratio, Heart ([2]; 250 mg/kg/day)	Fresh Organ-to-Body Weight Ratio, Lungs ([2]; 250 mg/kg/day)	SGPT ([2]; 250 mg/kg/day)	Urine Amount excreted by 6 animals in 6 hours ([2]; 500 mg/kg/day)	Dead/Treated ([2]; 500 mg/kg/day)	Fresh Organ-to-Body Weight Ratio, Heart ([2]; 500 mg/kg/day)	Fresh Organ-to-Body Weight Ratio, Lungs ([2]; 500 mg/kg/day)	SGPT ([2]; 500 mg/kg/day)	Dead/Treated [3]	effectiveness as prophylactic agent in preventing cholera [4]	treated persons infected [4]	growth of the remaining two organisms ([5]; 100 μg/ml of CO-1)	order of toxicity [6]	growth of the organisms after 48 hours ([5]; 10 g/ml (so in the source) of CO-2, five strains)	growth of the remaining two organisms ([5]; 100 g/ml (so in the source) of CO-2)
Nc1nccc(C=Cc2c[n+]([O-])c3ccccc3[n+]2[O-])n1 [CO-1, 2-[2-(2-amino-4-pyrimidinyl)ethenyl]-quinoxaline 1,4-dioxide]	comparable with controls	0/10	0.60 ± 0.08	0.731 ± 0.035	5 Units/ml	7 mL	2/10	0.47 ± 0.02	1.011 ± 0.110	6 Units/ml	1/6	effective by oral administration as a prophylactic agent in preventing cholera	None of the treated persons become infected	only marginal growth of the remaining two	low order of toxicity	–	–
Cc1cc(C=Cc2c[n+]([O-])c3ccccc3[n+]2[O-])nc(N)n1 [CO-2, 2-[2-(2-amino-6-methyl-4-pyrimidinyl)ethenyl]-quinoxaline 1,4-dioxide]	–	–	–	–	–	–	–	–	–	–	–	effective by oral administration as a prophylactic agent in preventing cholera	None of the treated persons become infected	–	–	no growth after 48 hours of 3 of the organisms	only marginal growth of the remaining two
